Laboratory results as given in PMC8945615 (Blood Advances, 2021).

Biological target: T1, human fibrinogen (human, UniProt P02671-2 20-644; P02675 31-491; P02679-2 27-437)
T1 sequence (looked up) 1: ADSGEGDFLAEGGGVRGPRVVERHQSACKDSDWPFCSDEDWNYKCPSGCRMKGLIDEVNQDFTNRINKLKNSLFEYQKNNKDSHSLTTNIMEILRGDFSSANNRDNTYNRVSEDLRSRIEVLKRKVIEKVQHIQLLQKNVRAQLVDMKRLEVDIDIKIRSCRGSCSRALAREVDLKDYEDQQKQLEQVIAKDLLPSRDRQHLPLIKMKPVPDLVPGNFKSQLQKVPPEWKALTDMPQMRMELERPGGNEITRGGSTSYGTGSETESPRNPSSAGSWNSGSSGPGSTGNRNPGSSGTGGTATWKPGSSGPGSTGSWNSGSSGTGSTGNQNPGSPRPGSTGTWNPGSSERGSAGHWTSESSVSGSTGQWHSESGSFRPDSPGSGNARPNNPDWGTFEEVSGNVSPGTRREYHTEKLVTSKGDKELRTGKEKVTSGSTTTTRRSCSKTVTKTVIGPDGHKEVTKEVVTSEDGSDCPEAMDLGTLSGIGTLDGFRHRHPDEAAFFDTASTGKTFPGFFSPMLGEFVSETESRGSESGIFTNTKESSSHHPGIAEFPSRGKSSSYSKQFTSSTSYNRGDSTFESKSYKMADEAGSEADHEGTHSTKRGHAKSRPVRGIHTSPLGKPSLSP
T1 sequence (looked up) 2: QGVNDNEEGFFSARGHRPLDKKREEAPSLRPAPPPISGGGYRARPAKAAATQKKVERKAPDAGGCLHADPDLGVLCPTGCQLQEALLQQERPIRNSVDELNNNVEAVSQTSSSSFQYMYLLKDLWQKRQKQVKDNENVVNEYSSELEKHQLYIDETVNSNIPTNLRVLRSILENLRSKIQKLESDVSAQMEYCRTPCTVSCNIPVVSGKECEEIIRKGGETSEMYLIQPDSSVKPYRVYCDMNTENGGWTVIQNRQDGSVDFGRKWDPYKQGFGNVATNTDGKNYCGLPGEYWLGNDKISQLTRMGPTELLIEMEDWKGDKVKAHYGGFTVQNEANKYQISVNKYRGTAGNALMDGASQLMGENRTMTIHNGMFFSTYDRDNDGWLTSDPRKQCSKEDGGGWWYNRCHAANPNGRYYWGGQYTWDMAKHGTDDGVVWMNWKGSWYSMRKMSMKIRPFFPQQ
T1 sequence (looked up) 3: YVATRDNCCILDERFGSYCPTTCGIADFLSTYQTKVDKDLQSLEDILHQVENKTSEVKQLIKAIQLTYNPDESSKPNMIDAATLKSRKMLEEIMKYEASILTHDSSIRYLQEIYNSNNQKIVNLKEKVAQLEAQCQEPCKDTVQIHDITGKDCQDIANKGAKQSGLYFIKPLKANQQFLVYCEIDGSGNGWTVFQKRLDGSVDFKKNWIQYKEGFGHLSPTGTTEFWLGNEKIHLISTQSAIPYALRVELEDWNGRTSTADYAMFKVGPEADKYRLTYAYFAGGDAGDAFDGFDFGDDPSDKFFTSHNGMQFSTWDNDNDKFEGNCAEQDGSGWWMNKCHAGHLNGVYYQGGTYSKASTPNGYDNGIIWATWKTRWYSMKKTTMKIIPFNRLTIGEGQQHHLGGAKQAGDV
Assay: SPR

B1: full-length, purified αIIbβ3 (receptor)
chain 1: not shown
chain 2: GPNICTTRGVSSCQQCLAVSPMCAWCSDEALPLGSPRCDLKENLLKDNCAPESIEFPVSEARVLEDRPLSDKGSGDSSQVTQVSPQRIALRLRPDDSKNFSIQVRQVEDYPVDIYYLMDLSYSMKDDLWSIQNLGTKLATQMRKLTSNLRIGFGAFVDKPVSPYMYISPPEALENPCYDMKTTCLPMFGYKHVLTLTDQVTRFNEEVKKQSVSRNRDAPEGGFDAIMQATVCDEKIGWRNDASHLLVFTTDAKTHIALDGRLAGIVQPNDGQCHVGSDNHYSASTTMDYPSLGLMTEKLSQKNINLIFAVTENVVNLYQNYSELIPGTTVGVLSMDSSNVLQLIVDAYGKIRSKVELEVRDLPEELSLSFNATCLNNEVIPGLKSCMGLKIGDTVSFSIEAKVRGCPQEKEKSFTIKPVGFKDSLIVQVTFDCDCACQAQAEPNSHRCNNGNGTFECGVCRCGPGWLGSQCECSEEDYRPSQQDECSPREGQPVCSQRGECLCGQCVCHSSDFGKITGKYCECDDFSCVRYKGEMCSGHGQCSCGDCLCDSDWTGYYCNCTTRTDTCMSSNGLLCSGRGKCECGSCVCIQPGSYGDTCEKCPTCPDACTFKKECVECKKFDRGALHDENTCNRYCRDEIESVKELKDTGKDAVNCTYKNEDDCVVRFQYYEDSSGKSILYVVEEPECPKGPDILVVLLSVMGAILLIGLAALLIWKLLITIHDRKEFAKFEEERARAKWDTANNPLYKEATSTFTNITYRGT
  fold increase of ka1 on priming with PT25-2 (against unprimed αIIbβ3): ~3 fold
